Experimental data reported in patent US10988516B2, “Methods and compositions for treating inflammation” (UTI Limited Partnership, priority 2012, dated 2021).

Tested on: 8.3-CD8+ T-cells
Conditions: 8.3-CD8+ T-cells after 28 days culture with peptide
Experimental: A and B, Phenotype of 8.3-CD8+ T-cells 28 days after culture in the presence of peptide-pulsed (10 or 0.001 ug/ml) DCs. […] C, Intracellular IFNγ content in response to peptide challenge. […] D, Secretion of IFNγ by, and proliferation of memory-like 8.3-CD8+ T-cells (induced by BacIYL) in response to peptide challenge.
Because low-avidity autoreactive T-cells tend to differentiate into memory-like anergic (non-proliferating, but cytokine-secreting) autoregulatory (autoimmune disease-suppressing) T-cells in response to chronic autoantigenic stimulation, it was contemplated that Bac-IYL might be able to induce memory-like 8.3-CD8+ T-cells in vitro.

## IYLKTNVYL (listed as Bacteroides sp.) [BacIYL]
  IFNg production in response to agonist (IGRP206-214)-pulsed DCs: rapidly produced IFNg
Compared to naive 8.3-CD8+ T-cells
  proliferation in response to peptide challenge: proliferative unresponsiveness (anergy)
